Source: PubChem BioAssay AID360 (National Center for Advancing Translational Sciences (NCATS), 2006)
The whole screen tested about 48,000 compounds, of which about 550 (1.1%) were called active. Roughly 4% stayed inconclusive and do not appear here. Rule as the data show it: active = potency below about 15 µM; inconclusive = mostly about 16 µM to 33 µM; inactive = weaker than that. The list shows a part of the results.

molecular target: Lysosomal acid glucosylceramidase (Homo sapiens) (UniProt P04062); experiment: Glucocerebrosidase; settings: purified enzyme, resorufin glucoside fluorescence (screen aimed at inhibitors), 20 min; series mostly up to 77 µM;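 also: the screen sought inhibitors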
UniProt P04062, sequence (P04062 whole entry, looked up): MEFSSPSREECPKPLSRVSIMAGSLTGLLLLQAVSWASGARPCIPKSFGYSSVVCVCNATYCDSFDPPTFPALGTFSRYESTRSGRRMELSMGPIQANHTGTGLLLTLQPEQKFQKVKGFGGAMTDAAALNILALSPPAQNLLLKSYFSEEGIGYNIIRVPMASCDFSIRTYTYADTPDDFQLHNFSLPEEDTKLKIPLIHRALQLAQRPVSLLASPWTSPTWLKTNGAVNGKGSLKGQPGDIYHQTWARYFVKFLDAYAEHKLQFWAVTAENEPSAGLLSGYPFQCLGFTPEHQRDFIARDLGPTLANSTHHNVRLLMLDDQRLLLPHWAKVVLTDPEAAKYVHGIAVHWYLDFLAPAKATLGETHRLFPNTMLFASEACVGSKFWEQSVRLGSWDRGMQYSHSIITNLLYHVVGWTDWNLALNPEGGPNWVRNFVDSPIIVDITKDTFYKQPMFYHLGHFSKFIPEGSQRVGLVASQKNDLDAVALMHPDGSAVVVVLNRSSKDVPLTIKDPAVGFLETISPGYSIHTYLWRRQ
How it was run: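 Wild-type enzyme at 0.2 nM final in 50mM citric acid/KH2PO4, 10mM sodium taurocholate, 0.01% tween-20, pH 5.9, with resorufin beta-D-glucopyranoside at 30 uM final. Compounds titrated, 20 min at RT, red fluorescence read; AC50 from titration.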
Potency is read from the fitted curve at half-maximal effect.

Potency, inactive:
COc1ccccc1Oc1ccc2c(c1)C(=O)N(c1ccc(O)cc1)C2=O > 76.9 µM, O=c1[nH]cnc2c1nc(SCc1ccccc1)n2C1OC(CO)C(O)C1O (stereo not given) > 76.9 µM, CC1CN(C(=O)c2cc(S(=O)(=O)N3CCCC3)c(Cl)cc2Cl)CC(C)O1 (stereo not given) > 76.9 µM, O=C(NC1CCCCC1)Sc1ccc(Cl)cc1 > 76.9 µM, Cc1nn(Cc2ccccc2)c(C)c1NC(=O)c1cc2nc(-c3ccco3)cc(C(F)(F)F)n2n1 > 76.9 µM, Cc1nc(NC(=O)CSc2ccccc2N)sc1C > 76.9 µM, CCOC(=O)C1CCCN(C(=O)c2cc(-c3ccc(C)cc3)on2)C1 (stereo not given) > 76.9 µM, CC(NS(=O)(=O)c1ccccc1)C(N)=O (stereo not given) > 76.9 µM, CC(C)C(c1nnnn1Cc1ccco1)N1CCN(c2cccc(Cl)c2)CC1 (stereo not given) > 76.9 µM, CC1(C)CC(=O)c2cc(C(=O)N3CCCCC3)c(=O)n(-c3ccc(Cl)cc3)c2C1 > 76.9 µM, CCOC(=O)C1(Nc2nccs2)Sc2ccccc2NC1=O (stereo not given) > 76.9 µM, CCOc1cc(-c2noc(N)c2C(=O)OC)cc(OCC)c1OCC > 76.9 µM, O=P1(c2ccccc2)C=Cn2c1cc1c2CCCC1 (stereo not given) > 76.9 µM, COc1ccc(CN2CCN(C(=O)c3ccco3)CC2)cc1 > 76.9 µM, COc1ccc(S(=O)(=O)N2CCN(C(=O)CCC3CCCC3)CC2)cc1 > 76.9 µM, CN(c1ccc(OCC(=O)N2CCCCC2)cc1)S(=O)(=O)c1cccs1 > 76.9 µM, O=C(CSc1nnc2sc3ccccc3n12)N1CCN(c2ccccc2)CC1 > 76.9 µM, NC(=O)CN1C(=O)C2CCCCN2C(=O)c2ccccc21 (stereo not given) > 76.9 µM, CCn1c(N2CCC(Cc3ccccc3)CC2)nc2c1c(=O)[nH]c(=O)n2C > 76.9 µM, CCOc1ccc(NC(=O)CSc2nc3cccnc3n2CC)cc1 > 76.9 µM, Cc1sc(NC(=O)CSc2nc(N)n(CC(=O)c3ccccc3)n2)c(C#N)c1C > 76.9 µM, CCOC(=O)C(C#N)C(c1cccnc1)c1c(C)[nH][nH]c1=O (stereo not given) > 76.9 µM, COc1cccc(Nc2c(F)c(OC)c(F)c(F)c2C(=O)O)c1 > 76.9 µM, CCCn1nnc(NC(=O)c2ccccc2Cl)n1 > 76.9 µM, COc1cccc(CNC(=O)Cn2cccc2)c1 > 76.9 µM, Cc1ccc(S(=O)(=O)NC2(C(F)(F)F)C(=O)Nc3c2c(=O)n(C)c(=O)n3C)cc1 (stereo not given) > 76.9 µM, COc1ccccc1-c1nnc(N(C)C(=O)C2CCCO2)s1 (stereo not given) > 76.9 µM, O=C(NC1CC2CCC(C1)N2C(=O)NC1CCCCC1)NC12CC3CC(CC(C3)C1)C2 (stereo not given) > 76.9 µM, COc1ccc2nc3oc(C(=O)NCc4cccs4)cc3cc2c1 > 76.9 µM, COCc1[nH]nc2c1C(c1ccc(OC)c(OC)c1)C(C#N)=C(N)O2 (stereo not given) > 76.9 µM, CCCCn1c(=O)[nH]c(=O)c2c1nc(COc1ccc(C#N)cc1)n2CCC > 76.9 µM, CCOc1cccc(/C(O)=C2/C(=O)C(=O)N(CCOC)C2c2ccc(C)o2)c1 (stereo not given) > 76.9 µM, Cc1nn(Cc2ccccc2Cl)c(C)c1C(=O)NCc1ccco1 > 76.9 µM, COc1ccc(Cl)cc1NC(=O)C1CCCN(c2cc(C)nc3ncnn23)C1 (stereo not given) > 76.9 µM, Cc1ccc2c(c1)C(O)(CC(=O)c1ccc3c(c1)OCO3)C(=O)N2 (stereo not given) > 76.9 µM, O=C(NC1CCCCC1)c1cc(-c2ccco2)on1 > 76.9 µM, COCCCNC(=O)c1cc2c(=O)n3cccc(C)c3nc2n(C(C)C)c1=N > 76.9 µM, CC1(C)CC(c2csc(N)n2)CCO1 (stereo not given) > 76.9 µM, COc1c(C(=O)N2CCCC2)ccc2ccccc12 > 76.9 µM, CCN1CCN(/C=N/c2nc3c(s2)CCCC3)CC1 > 76.9 µM, O=C(NCc1ccccc1)c1noc2c1CCCC2 > 76.9 µM, CCOC(=O)C1CCN(C(=O)CNC(=O)OC(C)(C)C)CC1 > 76.9 µM, CN(C)S(=O)(=O)c1ccc(S(=O)(=O)N(CC(=O)Nc2ccccc2)Cc2ccco2)cc1 > 76.9 µM, S=c1[nH]c2ccc(Cl)cc2[nH]1 > 76.9 µM, C=CCn1c(SCC(=O)Nc2cc(C)ccc2C)nnc1-c1cnccn1 > 76.9 µM, CCCc1nn(CCc2ccccn2)c(N)c1CC, CCCCC(c1nnnn1CCOC)N1CCN(C(=O)c2ccco2)CC1 (stereo not given) > 76.9 µM, CC(=O)c1cc2cc(O)ccc2o1 > 76.9 µM, COC(=O)c1cn(CC(=O)NCc2ccco2)c2ccccc12 > 76.9 µM, O=C(O)c1cc2cc(Cl)ccc2oc1=O > 76.9 µM, CCC(C(=O)NCc1ccc(F)cc1)N(Cc1ccco1)C(=O)c1snc(C(N)=O)c1N (stereo not given) > 76.9 µM, O=C(OCc1cc2ccccc2[nH]c1=O)c1cccnc1 > 76.9 µM, CCOC(=O)c1cccc(NC(=O)CSc2nnc(-c3cccnc3)n2C)c1 > 76.9 µM, C=CCNc1sc(C(=O)c2cccs2)c(N)c1C#N > 76.9 µM, CCCCn1c(CN2CCN(c3cccc(Cl)c3)CC2)nc2c1c(=O)[nH]c(=O)n2C > 76.9 µM, Cn1nc(C(=O)OCCN2C(=O)c3ccccc3C2=O)c2ccccc2c1=O > 76.9 µM, COc1ccc(C2CC(C(F)(F)F)n3nc(C(=O)O)cc3N2)cc1OC (stereo not given) > 76.9 µM, O=C(Cn1nc(C(F)F)cc1C1CC1)NCCC1=CCCCC1 > 76.9 µM, CCn1c(SCC(=O)NCc2ccccc2)nnc1-c1ccccc1O > 76.9 µM, CCOC(=O)N1CCC(n2c(SCC(=O)NCc3ccccc3)nc3ccccc3c2=O)CC1 > 76.9 µM, O=C(CSc1nnc(CN2CCOCC2)n1-c1ccccc1)Nc1ccc(Cl)cc1 > 76.9 µM, CCN(CC)S(=O)(=O)c1ccc(C(=O)NCc2n[nH]c(=S)n2-c2ccccc2OC)cc1 > 76.9 µM, CC1CCN(C(c2ccc(N(C)C)cc2)c2nnnn2Cc2ccccc2)CC1 (stereo not given) > 76.9 µM, CCc1[nH]nc2c1C1(CCN(C(=O)OCc3ccccc3)CC1)C(C#N)=C(N)O2 > 76.9 µM, COc1ccccc1CCNC(=O)c1ccoc1C > 76.9 µM, CCn1c(SCC(=O)N2CCC(C(N)=O)(N3CCCCC3)CC2)nc2ccccc2c1=O > 76.9 µM, COc1nc2cc(C)ccc2cc1-c1noc(-c2cccnc2)n1 > 76.9 µM, O=C(Nc1cc(C(F)(F)F)ccc1N1CCOCC1)c1cncc(Br)c1 > 76.9 µM, C=CCN(c1ccc(C(N)=O)cc1)S(C)(=O)=O > 76.9 µM, COc1cc(CCC(=O)OCC(=O)Nc2ncc(Cl)cc2Cl)cc(OC)c1OC > 76.9 µM, CCOc1ccc(-c2nnn(CC(=O)Nc3cc(OC)cc(OC)c3)n2)cc1OCC > 76.9 µM, CCOc1ccccc1C1C(C#N)=C(N)Nc2onc(-c3ccccc3)c21 (stereo not given) > 76.9 µM, Cc1ccnc(SCCn2c(Br)nc3c2c(=O)[nH]c(=O)n3C)n1 > 76.9 µM, O=C(O)c1ccc(CS(=O)(=O)c2cccc(C(F)(F)F)c2)o1 > 76.9 µM, COCCCNC(=O)C1CC(=O)N(CCc2ccc(OC)c(OC)c2)C1 (stereo not given) > 76.9 µM, COCCn1c(SCC(=O)c2ccccc2)nc2c(c1=O)SC(C)C2 (stereo not given) > 76.9 µM, Nn1c(SC/C=C/c2ccccc2)nnc1-c1ccco1 > 76.9 µM, Cc1ccc2cc(CN(C(=O)C3CCCO3)C3CCCCC3)c(=O)[nH]c2c1 (stereo not given) > 76.9 µM, CCN(CC)CCNC(=O)CCCCn1c(=S)[nH]c2c([nH]c3ccc(OC)cc32)c1=O, C=CCC(NCCCO)c1cccc(OC)c1OC (stereo not given) > 76.9 µM, CCn1c2ccccc2c2nc3cc(S(=O)(=O)N4CCOCC4)ccc3nc21 > 76.9 µM, CC(C)N1CC(C(=O)Nc2ccc(Br)c(Cl)c2)CC1=O (stereo not given) > 76.9 µM, CCOc1cc(C(=O)Nc2ccc(N3CCN(S(C)(=O)=O)CC3)cc2)cc(OCC)c1OCC > 76.9 µM, c1ccc(-n2ncc3c2ncn2c(C4CCCCC4)nnc32)cc1 > 76.9 µM, Cc1c(NC(=O)CSc2ccccc2C(=O)Nc2cccnc2)c(=O)n(-c2ccccc2)n1C > 76.9 µM, COCCNc1nnc(SCC(=O)c2ccc3c(c2)OCO3)s1 > 76.9 µM, COCC(=O)Nc1nc2n(n1)C(c1ccccc1Cl)CC(c1ccc(OC)cc1)N2 (stereo not given) > 76.9 µM, O=C(CSc1ccc2nnc(-c3ccccc3)n2n1)N1CCCCC1 > 76.9 µM, O=C(NCCN1CCc2ccccc2C1)C1CCN(S(=O)(=O)N2CCCCC2)CC1 > 76.9 µM, CCOc1ccc(N2CC(C(=O)NCCc3ccc(OC)c(OC)c3)CC2=O)cc1 (stereo not given) > 76.9 µM
